Results published in patent US20140154255A1 (AbbVie / Abbott, published 2014).

Legend:
[1] = biological target: T1, human VEGF-A residues 27-191 of Accession #AAV38412 (human, UniProt P15692 27-191); experiment: BIAcore SPR, KD WT/KD mutant [continued]
T1 construct: range 27-191
T1 sequence (looked up): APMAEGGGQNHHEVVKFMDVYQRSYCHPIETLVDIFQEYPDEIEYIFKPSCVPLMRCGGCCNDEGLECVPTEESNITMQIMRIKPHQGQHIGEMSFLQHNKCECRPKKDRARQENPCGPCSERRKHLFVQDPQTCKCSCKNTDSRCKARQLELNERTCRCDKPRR
Procedure: (§1) The binding kinetics and affinity of the antibodies for VEGF (human VEGF-A residues 27-191 of Accession #AAV38412) was determined by using a BIAcore T200 surface plasmon resonance system (BIAcore, GE Healthcare, Piscataway, N.J.). Coupling running buffer was HBS-EP+ running buffer (10 mM HEPES, 150 mM sodium chloride, 3 mM EDTA 0.05% P-20, pH 7.4); assay running buffer was HBS-EP+ with 300 mM sodium chloride and 0.1 mg/mL BSA (Sigma A7906). Polyclonal goat anti-human Fc (Thermo Scientific prod#31125) was first immobilized to the biosensor surface in 10 mM sodium acetate, pH 4.5 using standard BIAcore amine coupling reagents (N-ethyl-N′-dimethylamino-propylcarbodiimide, EDC; N-hydroxysuccinimide, NHS; and ethanolamine HCl, pH 8.5). For binding kinetics assay a series of cycles were performed, each cycle consisted of 1) mAb capture, 2) Ag or buffer injection, 3) dissociation phase and 4) regeneration. Briefly, anti-VEGF antibodies were captured on parallel surfaces at a low flow rate of 10 μL/min. Capture levels were kept low to minimize avidity due to the dimeric nature of VEGF. No capture of the antibody was made on the reference surface to serve for primary referencing and as a negative control. Subsequently, VEGF or buffer only was injected to all flow cells at a flow rate of 80 μL/min for three minutes to monitor association followed by a 20-minute flow of assay rinning buffer at a flow rate of 80 μL/min to monitor dissociation. […] At the end of each cycle the surface was regenerated with 10 mM glycine, pH 1.5 at a flow rate of 60 μL/min in pulses of 60 and 10 sec. Binding data were fit to the 1:1 Langmuir model with mass transport term included using Biacore T200 Evaluation Software to determine the binding constants.

[2] = biological target: T1, human VEGF-A residues 27-191 of …; experiment: BIAcore SPR [continued]
Procedure: as §1

B1: SL DLL4-VEGF DVD-Ig variant N31F (bispecific antibody)
heavy: EVQLVESGGGLVQPGGSLRLSCAASGFTFSNFPMAWVRQAPGKGLEWVATISSSDGTTYYRDSVKGRFTISRDNAKNSLYLQMNSLRAEDTAVYYCARGYYNSPFAYWGQGTLVTVSSASTKGPEVQLVESGGGLVQPGGSLRLSCAASGYTFTFYGMNWVRQAPGKGLEWVGWINTYTGEPTYAADFKRRFTFSLDTSKSTAYLQMNSLRAEDTAVYYCAKYPHYYGSSHWYFDVWGQGTLVTVSSASTKGPSVFPLAPSSKSTSGGTAALGCLVKDYFPEPVTVSWNSGALTSGVHTFPAVLQSSGLYSLSSVVTVPSSSLGTQTYICNVNHKPSNTKVDKKV[gap - human IgG1 Fc with changes]
light: DIQMTQSPSSLSASVGDRVTITCRASEDIYSNLAWYQQKPGKAPKLLIYDTNNLADGVPSRFSGSGSGTDFTLTISSLQPEDFATYYCQQYNNYPPTFGQGTKLEIKRTVAAPSVFIFPPDIQMTQSPSSLSASVGDRVTITCSASQDISNYLNWYQQKPGKAPKVLIYFTSSLHSGVPSRFSGSGSGTDFTLTISSLQPEDFATYYCQQYSTVPWTFGQGTKVEIKRTVAAPSVFIFPPSDEQLKSGTASVVCLLNNFYPREAKVQWKVDNALQSGNSQESVTEQDSKDSTYSLSSTLTLSKADYEKHKVYACEVTHQGLSSPVTKSFNRGEC
notes: also called N31F (SL linked DVD-Ig)
Work on B1 yielded an affinity improvement [1] of 2.5 fold, a Kd [2] of 0.52 nM and a koff [2] of 2.45e-05 s⁻¹. The kon [2] was 47100 M⁻¹ s⁻¹.

B2: SL DLL4-VEGF DVD-Ig variant N31H (bispecific antibody)
heavy: EVQLVESGGGLVQPGGSLRLSCAASGFTFSNFPMAWVRQAPGKGLEWVATISSSDGTTYYRDSVKGRFTISRDNAKNSLYLQMNSLRAEDTAVYYCARGYYNSPFAYWGQGTLVTVSSASTKGPEVQLVESGGGLVQPGGSLRLSCAASGYTFTHYGMNWVRQAPGKGLEWVGWINTYTGEPTYAADFKRRFTFSLDTSKSTAYLQMNSLRAEDTAVYYCAKYPHYYGSSHWYFDVWGQGTLVTVSSASTKGPSVFPLAPSSKSTSGGTAALGCLVKDYFPEPVTVSWNSGALTSGVHTFPAVLQSSGLYSLSSVVTVPSSSLGTQTYICNVNHKPSNTKVDKKV[gap - human IgG1 Fc with changes]
light: B1 light
notes: also called N31H (SL linked DVD-Ig)
In the case of B2, the affinity improvement [1] is reported as 1.8 fold, the Kd [2] is reported as 0.73 nM and the koff [2] is reported as 3.15e-05 s⁻¹. For the same binder, the kon [2] was 42900 M⁻¹ s⁻¹.

B3: SL DLL4-VEGF DVD-Ig variant N31W (bispecific antibody)
heavy: EVQLVESGGGLVQPGGSLRLSCAASGFTFSNFPMAWVRQAPGKGLEWVATISSSDGTTYYRDSVKGRFTISRDNAKNSLYLQMNSLRAEDTAVYYCARGYYNSPFAYWGQGTLVTVSSASTKGPEVQLVESGGGLVQPGGSLRLSCAASGYTFTWYGMNWVRQAPGKGLEWVGWINTYTGEPTYAADFKRRFTFSLDTSKSTAYLQMNSLRAEDTAVYYCAKYPHYYGSSHWYFDVWGQGTLVTVSSASTKGPSVFPLAPSSKSTSGGTAALGCLVKDYFPEPVTVSWNSGALTSGVHTFPAVLQSSGLYSLSSVVTVPSSSLGTQTYICNVNHKPSNTKVDKKV[gap - human IgG1 Fc with changes]
light: B1 light
notes: also called N31W (SL linked DVD-Ig)
B3 gave an affinity improvement [1] of 1.7 fold, a Kd [2] of 0.75 nM and a koff [2] of 2.77e-05 s⁻¹. The kon [2] was 37100 M⁻¹ s⁻¹.

B4: SL DLL4-VEGF DVD-Ig variant N31Y (bispecific antibody)
heavy: EVQLVESGGGLVQPGGSLRLSCAASGFTFSNFPMAWVRQAPGKGLEWVATISSSDGTTYYRDSVKGRFTISRDNAKNSLYLQMNSLRAEDTAVYYCARGYYNSPFAYWGQGTLVTVSSASTKGPEVQLVESGGGLVQPGGSLRLSCAASGYTFTYYGMNWVRQAPGKGLEWVGWINTYTGEPTYAADFKRRFTFSLDTSKSTAYLQMNSLRAEDTAVYYCAKYPHYYGSSHWYFDVWGQGTLVTVSSASTKGPSVFPLAPSSKSTSGGTAALGCLVKDYFPEPVTVSWNSGALTSGVHTFPAVLQSSGLYSLSSVVTVPSSSLGTQTYICNVNHKPSNTKVDKKV[gap - human IgG1 Fc with changes]
light: B1 light
notes: also called N31Y (SL linked DVD-Ig)
B4 was tested, and the affinity improvement [1] was 4.6 fold, the Kd [2] was 0.236 nM and the koff [2] was 1.4e-05 s⁻¹. It also gave a kon [2] of 59200 M⁻¹ s⁻¹.

B5: SL DLL4-VEGF DVD-Ig variant S100aT (bispecific antibody)
heavy: EVQLVESGGGLVQPGGSLRLSCAASGFTFSNFPMAWVRQAPGKGLEWVATISSSDGTTYYRDSVKGRFTISRDNAKNSLYLQMNSLRAEDTAVYYCARGYYNSPFAYWGQGTLVTVSSASTKGPEVQLVESGGGLVQPGGSLRLSCAASGYTFTNYGMNWVRQAPGKGLEWVGWINTYTGEPTYAADFKRRFTFSLDTSKSTAYLQMNSLRAEDTAVYYCAKYPHYYGTSHWYFDVWGQGTLVTVSSASTKGPSVFPLAPSSKSTSGGTAALGCLVKDYFPEPVTVSWNSGALTSGVHTFPAVLQSSGLYSLSSVVTVPSSSLGTQTYICNVNHKPSNTKVDKKV[gap - human IgG1 Fc with changes]
light: B1 light
notes: also called S100aT (SL linked DVD-Ig)
With B5 the affinity improvement [1] was 1.6 fold, the Kd [2] was 0.81 nM and the koff [2] was 5.02e-05 s⁻¹. It also gave a kon [2] of 61700 M⁻¹ s⁻¹.

B6: SL DLL4-VEGF DVD-Ig variant T30N (bispecific antibody)
heavy: EVQLVESGGGLVQPGGSLRLSCAASGFTFSNFPMAWVRQAPGKGLEWVATISSSDGTTYYRDSVKGRFTISRDNAKNSLYLQMNSLRAEDTAVYYCARGYYNSPFAYWGQGTLVTVSSASTKGPEVQLVESGGGLVQPGGSLRLSCAASGYTFNNYGMNWVRQAPGKGLEWVGWINTYTGEPTYAADFKRRFTFSLDTSKSTAYLQMNSLRAEDTAVYYCAKYPHYYGSSHWYFDVWGQGTLVTVSSASTKGPSVFPLAPSSKSTSGGTAALGCLVKDYFPEPVTVSWNSGALTSGVHTFPAVLQSSGLYSLSSVVTVPSSSLGTQTYICNVNHKPSNTKVDKKV[gap - human IgG1 Fc with changes]
light: B1 light
notes: also called T30N (SL linked DVD-Ig)
Work on B6 yielded an affinity improvement [1] of 1.5 fold, a Kd [2] of 0.703 nM and a koff [2] of 3.01e-05 s⁻¹. It also gave a kon [2] of 42800 M⁻¹ s⁻¹.
